# In patent US11034935B2, “Liver organoid, uses thereof and culture method for obtaining them” (Koninklijke Nederlandse Akademie van Wetenschappen, priority 2010, dated 2021):
# Test system: Lgr5
# Details: Lgr5-LacZ knockin mice, 0.8 ml/kg injection
# Source text: The Wnt target gene Lgr5 marks stem cells in several actively self-renewing tissues, but has not previously been reported to be expressed upon injury. […] No expression of the reporter was detected in wild-type littermates undergoing similar injury protocol (see FIG. 13A, bottom right panel).
compound,measurement,value
"ClC(Cl)(Cl)Cl [CC14, carbon tetrachloride]",Lgr5 reporter expression in the liver,clear expression of the reporter in newly formed bud structures in the liver
